# PubChem BioAssay AID1240 (Sanford-Burnham Center for Chemical Genomics, 2008)
# In all, about 50,000 compounds went through this assay and about 800 (1.6%) showed an effect of 50% or more. The list shows a part of the results.
# Target: Bcl-2-like protein 10 (Homo sapiens) (UniProt Q9HD36)
# Assay: Phenotype converters, Bcl-B/TR3 peptide binding displacement, primary biochemical FP (AID 1240);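 further: 0% = Bcl-B with tracer peptide and DMSO and 100% = tracer peptide lacking Bcl-B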
# Settings: GST-Bcl-B / FITC-TR3 peptide fluorescence polarization; stronger effect = higher value; compound at 3.75 mg/L
# UniProt Q9HD36, sequence (Q9HD36 whole entry, looked up): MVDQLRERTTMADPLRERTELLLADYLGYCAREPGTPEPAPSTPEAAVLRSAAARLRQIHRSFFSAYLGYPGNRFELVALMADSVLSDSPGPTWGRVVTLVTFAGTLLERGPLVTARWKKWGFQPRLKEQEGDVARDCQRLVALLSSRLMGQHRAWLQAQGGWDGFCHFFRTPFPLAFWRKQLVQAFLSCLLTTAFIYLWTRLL
row,Compound,displacement
1,C[n+]1cc(N)cc2ccccc21,19.7%
2,O=C(Nc1cccc2ccccc12)c1cc([N+](=O)[O-])ccc1Cl,-7.3%
3,O=C(O)c1cc(O)c2ccccc2c1O,7.8%
4,Cc1ccsc1/C=C1\SC(=S)N(CC(C)C)C1=O,14.1%
5,COc1cc(-c2c(C#N)c(N)n3c(nc4ccccc43)c2C#N)ccc1O,14.7%
6,COc1ccc(C2=C/C(=C\c3ccc(OC(C)=O)cc3OC(C)=O)C(=O)O2)cc1,-3.3%
7,Cc1ccc(OCC(=O)Nc2ccc(N(C)C)cc2)c(Br)c1,12.2%
8,C(=NNc1cc(N2CCOCC2)nc(N2CCOCC2)n1)c1cccs1,3.8%
9,Cc1ccc(C2(c3ccc(C)cc3)CC2C(=O)Nc2ccncc2)cc1 (stereo unspecified),4.1%
10,C=CCN1C(=O)C2C3c4ccccc4C(c4ccccc43)C2C1=O (stereo unspecified),7.3%
11,Cc1ccc(-c2cc3nc4c(c(=O)n3[nH]2)SCC4)cc1,-4.6%
12,C#CCn1cc(/C=C(/C#N)C(=O)Nc2ccc(Cl)cc2)c2ccccc21,-4.5%
13,O=C1NC(=S)N(c2cccc(Cl)c2)C(=O)/C1=C\c1ccc(N2CCCC2)cc1,-14.4%
14,CCCOc1ccc(/C=C2\C(=O)NN(c3ccccc3)C2=O)cc1OC,12.5%
15,COC(=O)N(C)CCCC1(C)C(=O)N(C)c2ccc(O)cc21 (stereo unspecified),5.3%
16,O=C1c2cccc3cccc(c23)C(=O)N1/N=C/c1ccccc1,-15.3%
17,CC1(C)CC(=O)c2cnc(NC(=O)/C=C/c3cccc([N+](=O)[O-])c3)nc2C1,26.3%
18,CCN(CC)c1ccc(/C=C(\C#N)C(=O)NC2CCS(=O)(=O)C2)cc1 (stereo unspecified),-3.1%
19,Cc1cc2c(cc1C)CN(c1ccc(C=Nc3ccc(Br)cc3)cc1)C2,1%
20,O=C(Nc1ccc(Cl)c(Cl)c1)Nc1cccc(Cl)c1Cl,5.9%
21,Cc1cc(=O)[nH]c(N(C)Cc2ccccc2)n1,-6.2%
22,COc1ccc(C2C(C(=O)OC(C)C)C(=O)CC(C)(O)C2C(=O)OC(C)C)cc1OC (stereo unspecified),8.3%

row,Compound,displacement
1,COC(=O)C1=CN(Cc2ccc(OC)cc2)C=C(C(=O)OC)C1c1ccc(C)s1,2.4%
2,Cc1ccc(NC2=CC(c3ccc([N+](=O)[O-])cc3)N(c3ccc(C)cc3)C2=O)cc1 (stereo unspecified),-1.5%
3,O=C(Nc1ccc2[nH]c(=O)[nH]c2c1)c1cccnc1,14.4%
4,COc1ccc(-c2noc(C34CC5CC(CC(C5)C3)C4)n2)cc1,-11.6%
5,COc1cc2ccccc2cc1C(=O)Nc1ccc(I)cc1Cl,26.7%
6,Cc1cccc(-n2c(C)cc(/C=N/n3cnnc3)c2C)c1,5.3%
7,CC1=C(C(=O)OCc2ccccc2)C(c2ccc(F)c(Br)c2)CC(=O)N1 (stereo unspecified),-6.1%
8,CC(=O)/C=C/c1ccc(-c2cccc([N+](=O)[O-])c2)o1,-5.2%
9,COc1ccc(NC(=O)CN(c2ccccc2Cl)S(C)(=O)=O)c(OC)c1,5.9%
10,COc1ccc(NC(=O)c2sc3cc(C)ccc3c2Cl)c([N+](=O)[O-])c1,9.1%
11,CCc1ccccc1NC(=O)C(=O)NCc1ccco1,8.7%
12,COc1ccc(OC)c(NC(=O)C(=O)NNS(=O)(=O)c2ccccc2)c1,-5.3%
13,O=C(Nc1cccc(-c2nc3ccccc3s2)c1)c1cc2ccccc2oc1=O,4%
14,COc1ccc(/C(C)=N/NC(=O)COc2ccc(Cl)cc2Cl)cc1OC,1.2%
15,Cc1[nH][nH]c(=O)c1C(c1ccccc1F)C(C#N)C#N (stereo unspecified),-0.4%
16,O=C(Nc1nncs1)c1cc(-c2ccccc2Cl)nc2ccccc12,0.8%
17,COc1cc2c(cc1NC(=O)c1c(-c3c(Cl)cccc3Cl)noc1C)oc1ccccc12,-0.2%
18,Cc1cc2nc(-c3cc(NC(=O)c4ccc5c(c4)OCCO5)ccc3O)oc2cc1C,42%
19,Cc1ccc(-c2cc(C(F)(F)F)n3ncc(C(=O)NCCCN4CCOCC4)c3n2)cc1,9.9%
20,Cc1cccc(C)c1OCC(=O)Nc1ccccc1O,13.6%
21,CC(C)C1S/C(=N/N=C/c2ccc(O)cc2)NC1=O (stereo unspecified),-12.9%
22,CCOC(=O)COc1ccc(/C=C2/C(=O)NN(c3cccc(Cl)c3)C2=O)cc1OC,-3.3%

row,Compound,displacement
1,Cc1cc(C(=O)Nc2cccc(O)c2)c(C)o1,16.3%
2,O=C(NN1C(=O)C2CC=CCC2C1=O)c1ccncc1 (stereo unspecified),-20.9%
3,COc1cc(C=C2C(=O)N(C)C(=O)N(C)C2=O)ccc1OCCOc1ccc(C)cc1,6%
4,CCOC(=O)C1=CN(c2ccc(F)cc2)C=C(C(=O)OCC)C1c1ccc(F)cc1,-1.2%
5,COc1ccccc1OCCOc1ccccc1OC,7.3%
6,COc1ccc(OC)c(/C=C/C(=O)c2cccc([N+](=O)[O-])c2)c1,-6.4%
7,O=C(COc1ccc(Cl)cc1Cl)Nc1ccccc1C(=O)Nc1ccccc1,-5.8%
8,CC1=C(C(=O)OC2CCCC2)C(c2ccccc2)C2=C(CC(c3ccc(Cl)cc3)CC2=O)N1 (stereo unspecified),-6.2%
9,CN1C(=O)NC(=O)/C(=C/c2cc3c(cc2Br)OCO3)C1=O,4.3%
10,O=c1/c(=C/c2cccs2)sc2nc3ccccc3n12,7.2%
11,COc1ccc(C/C(O)=C(\C#N)c2nc3ccccc3[nH]2)cc1,46.4%
12,Cc1ccccc1N(CC(=O)N1CCOCC1)S(C)(=O)=O,2.7%
13,Cc1cc(/C=N/N2C(=O)c3ccccc3C2=O)c(C)n1-c1ccc(N(C)C)cc1,3.5%
14,COc1ccc(NS(=O)(=O)c2ccc(F)cc2)cc1OC,3.9%
15,Cc1cccc(NC(=O)c2cc(Cl)ccc2Cl)n1,4.6%
16,O=C(Nc1ccc(S(=O)(=O)Nc2nccs2)cc1)c1ccc([N+](=O)[O-])cc1Cl,0.9%
17,COC(=O)c1ccc(/C=N/NC(=O)COc2ccc(C(C)(C)CC(C)(C)C)cc2[N+](=O)[O-])cc1,7.7%
18,N#CC1=C(N)Oc2cc(O)ccc2C1C1CCCCC1 (stereo unspecified),-7.1%
19,N/C(=N\N=C\c1ccccc1O)c1nonc1N,-7.8%
20,COc1ccc(-c2ccc(/C=N/NC(=O)C(O)c3ccccc3)o2)cc1Cl (stereo unspecified),9.8%
21,CCOC(=O)CSc1nc2sc3c(c2c(=O)[nH]1)CC(C)(C)OC3,1.1%
22,O=C(CCc1ccccc1)Nc1nc(-c2ccccc2)cs1,2.1%

row,Compound,displacement
1,CSc1ccc(/C=C2/SC(=S)N(CC(=O)O)C2=O)cc1,-2.4%
2,O=C(CN1C(=O)/C(=C\c2ccccc2Cl)SC1=S)Nc1ccc([N+](=O)[O-])cc1O,-5%
3,O=C1C2=C(Nc3ccccc3SC2c2ccc([N+](=O)[O-])cc2)c2ccccc21 (stereo unspecified),-6%
4,CCCCOC(=O)c1ccc(NC(=O)COc2ccc3c(c2)oc(=O)c2ccccc23)cc1,-4.7%
5,COc1ccc(-c2nc(NC(=O)c3ccco3)sc2-c2ccc([N+](=O)[O-])cc2)cc1,5.5%
6,O=C(NC12CC3CC(CC(C3)C1)C2)c1ccc(F)cc1,4.3%
7,CC(=O)c1oc2ccc3c(C)cc(=O)oc3c2c1-c1ccccc1,-10.7%
8,O=C(Nc1ccccc1[N+](=O)[O-])c1ccc2ccccc2n1,89.3%
9,COc1ccc(C2NC(=O)NC(C)=C2C(C)=O)cc1 (stereo unspecified),17.3%
10,COc1ccc(Nc2nc(Nc3ccc([N+](=O)[O-])cc3)nc(OC)n2)cc1,9.1%
11,O=S(=O)(c1ccc(C=Nc2ccc(Br)cc2)cc1)c1ccc(C=Nc2ccc(Br)cc2)cc1,-8.7%
12,CCOc1ccc2ccccc2c1/C=C1/C(=O)NC(=O)N(C)C1=O,-8.4%
13,COc1ccccc1OCCOc1ccc(/C=N/N2C(=O)CSC2=S)cc1,13.5%
14,CCCCS(=O)(=O)C(=C(Nc1ccc(OC)cc1)Nc1ccc(OC)cc1)S(=O)(=O)CCCC,-0.7%
15,COC1(/C(=C/C(=O)c2ccc(C)cc2)Nc2ccccc2)CCCCC1,4.5%
16,COc1cc(C2NC(=O)NC(C)=C2C(=O)OCCOc2ccccc2)cc(Cl)c1O (stereo unspecified),13.9%
17,COc1ccccc1N1C(=O)C2C3C=CC(CC3)C2C1=O (stereo unspecified),5.3%
18,Cc1ccccc1C(=O)NNC(=O)c1ccco1,-17.2%
19,COc1ccc(-c2nn(-c3ccccc3)c(N)c2-c2ccccc2)cc1OC,11.2%
20,Cc1cc(C)cc(N2C(=O)NC(=O)/C(=C\c3sccc3C)C2=O)c1,20.5%
21,CC(C)(C(=O)c1ccccc1)/[N+]([O-])=C/c1ccc(Br)cc1,-8.7%
22,Cc1ccc(S(=O)(=O)N(Cc2ccccc2)c2ccccc2C(=O)NCCc2ccccc2)cc1,17.3%

row,Compound,displacement
1,Cc1ccc(NC(=O)/C(=C/c2cccc([N+](=O)[O-])c2)NC(=O)c2ccccc2)c(Br)c1,-0.3%
2,O=C(O)CNC(=O)c1ccccc1Cl,-12.2%
3,CCc1ccc(-c2nc3cc(NC(=S)NC(=O)c4ccco4)ccc3o2)cc1,14.6%
4,Cc1ccc(/C=C2\SC(=O)N(CCC(=O)Nc3c(C)n(C)n(-c4ccccc4)c3=O)C2=O)cc1,4.4%
5,O=C(Nc1cccnc1)c1cccc(Cl)c1Cl,13.1%
6,CCOc1ccccc1NC(=O)C(=O)NCCc1ccc(OC)c(OC)c1,6.4%
7,COc1ccc(N(CC(O)CN(Cc2ccccc2)Cc2ccccc2)S(=O)(=O)c2ccc(C)cc2)cc1 (stereo unspecified),8.3%
8,COC(=O)c1ccc(N2C(=O)CC(N3CCN(c4ccc(Cl)cc4)CC3)C2=O)cc1 (stereo unspecified),-4.6%
9,O=C1S/C(=C/c2ccc([N+](=O)[O-])cc2)C(=O)N1c1ccccc1,0.2%
10,O=C(COc1ccc2ccccc2c1)NNC(=O)c1cccc(Cl)c1,-8%
11,COc1ccccc1OCCOc1c(Cl)cc(/C=N/n2cnnc2)cc1OC,-10.1%
12,COc1ccc(C2CC(C(F)(F)F)n3nc(C(=O)Nc4cccc(Cl)c4Cl)c(Cl)c3N2)cc1 (stereo unspecified),2.8%
13,O=c1c2ccccc2nc2n1C1(CCCCC1)Cc1ccccc1-2,-5.9%
14,CC(=O)N(C)N1c2ccccc2CCc2ccccc21,-1%
15,Cc1ccc(OCC(=O)Nc2cc([N+](=O)[O-])ccc2Cl)c(Br)c1,-3.6%
16,CN(Cc1ccccc1)C(=O)c1nn2c(C(F)(F)F)c3c(nc2c1Cl)-c1ccccc1CC3,5.2%
17,CCOC(=O)C1=C(C)N=c2s/c(=C\c3ccc(O)c(OC)c3)c(=O)n2C1c1cccc(OC)c1 (stereo unspecified),-2.1%
18,O=[N+]([O-])c1cccc(Cl)c1C1NN=C(Cc2ccccc2)S1 (stereo unspecified),-9.8%
